Measured values: publication PMC12820563, “FoxP3 forms a head-to-head dimer in vivo and stabilizes its multimerization on adjacent microsatellites”
The other results are listed elsewhere or left out.

molecular target: T1, MBP-FoxP1dN (Mus musculus, UniProt P58462 326-579); test: PD-seq (MBP pull-down with sequencing); 20 mM Tris-HCl pH 7.5, 100 mM NaCl, 1.5 mM MgCl2, 0.4 uM protein, 0.1 uM dsDNA library, 30 min, room temperature, amylose pull-down; high values mean tight binding; details: protein: recombinant; tags: His6-MBP; chain copies: 2; dsDNA, one strand shown
T1 sequence: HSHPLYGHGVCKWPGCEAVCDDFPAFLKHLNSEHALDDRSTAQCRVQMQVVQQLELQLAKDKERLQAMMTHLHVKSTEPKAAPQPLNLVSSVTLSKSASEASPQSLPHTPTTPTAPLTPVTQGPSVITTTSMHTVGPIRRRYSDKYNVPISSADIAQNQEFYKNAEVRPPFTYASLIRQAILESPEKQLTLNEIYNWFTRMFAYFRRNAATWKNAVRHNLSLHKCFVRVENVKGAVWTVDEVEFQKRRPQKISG
Outline: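 In Tris pH 7.5 buffer with NaCl and MgCl2, 0.4 µM His6-MBP-tagged mouse FoxP3 or FoxP1 fragment lacking the N-terminus, from E. coli, met 0.1 µM Klenow-filled double-stranded degenerate DNA library for 30 min at room temperature. Three washes on amylose resin followed capture of the complexes, then proteinase K release of DNA, PCR barcoding and Illumina sequencing. Binding is taken as pooled-replicate reads-per-million enrichment of pull-down relative to input.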

Sequence	binding signal
GATGATTGTTCTCCCAGCTGATGAATTCACTGATTCGAGTAAACAAATTTTCCTAATCTTTCTGTTCAAGCGCCATCTAC	0.905 RPM ratio (pull-down/input)
GATGATTGTTCTCCCAGCTGATGAATTAAACGCATCGAGTAAACAAATTTTCCTAATCTTTCTGTTCAAGCGCCATCTAC	1.26 RPM ratio (pull-down/input)
GATGATTGTTCTCCCAGCTGATGAATTGTGGGGCTCGAGTAAACAAATTTTCCTAATCTTTCTGTTCAAGCGCCATCTAC	0.838 RPM ratio (pull-down/input)
GATGATTGTTCTCCCAGCTGATGAATTTTTCAATTCGAGTAAACAAATTTTCCTAATCTTTCTGTTCAAGCGCCATCTAC	0.938 RPM ratio (pull-down/input)
GATGATTGTTCTCCCAGCTGATGAATTTGCTGATTCGAGTAAACAAATTTTCCTAATCTTTCTGTTCAAGCGCCATCTAC	1.08 RPM ratio (pull-down/input)
GATGATTGTTCTCCCAGCTGATGAATTCAACTTATCGAGTAAACAAATTTTCCTAATCTTTCTGTTCAAGCGCCATCTAC	0.899 RPM ratio (pull-down/input)
GATGATTGTTCTCCCAGCTGATGAATTTGTACTATCGAGTAAACAAATTTTCCTAATCTTTCTGTTCAAGCGCCATCTAC	1.22 RPM ratio (pull-down/input)
GATGATTGTTCTCCCAGCTGATGAATTCCGATCCTCGAGTAAACAAATTTTCCTAATCTTTCTGTTCAAGCGCCATCTAC	0.737 RPM ratio (pull-down/input)
GATGATTGTTCTCCCAGCTGATGAATTATTCCACTCGAGTAAACAAATTTTCCTAATCTTTCTGTTCAAGCGCCATCTAC	1.05 RPM ratio (pull-down/input)
GATGATTGTTCTCCCAGCTGATGAATTCCCGTAGTCGAGTAAACAAATTTTCCTAATCTTTCTGTTCAAGCGCCATCTAC	0.816 RPM ratio (pull-down/input)
GATGATTGTTCTCCCAGCTGATGAATTGCCCTTTTCGAGTAAACAAATTTTCCTAATCTTTCTGTTCAAGCGCCATCTAC	1 RPM ratio (pull-down/input)
GATGATTGTTCTCCCAGCTGATGAATTGACACAGTCGAGTAAACAAATTTTCCTAATCTTTCTGTTCAAGCGCCATCTAC	1.17 RPM ratio (pull-down/input)
GATGATTGTTCTCCCAGCTGATGAATTACCGCGTTCGAGTAAACAAATTTTCCTAATCTTTCTGTTCAAGCGCCATCTAC	1.04 RPM ratio (pull-down/input)
GATGATTGTTCTCCCAGCTGATGAATTTAGTGTGTCGAGTAAACAAATTTTCCTAATCTTTCTGTTCAAGCGCCATCTAC	1.09 RPM ratio (pull-down/input)
GATGATTGTTCTCCCAGCTGATGAATTTGAGTTTTCGAGTAAACAAATTTTCCTAATCTTTCTGTTCAAGCGCCATCTAC	1.01 RPM ratio (pull-down/input)
GATGATTGTTCTCCCAGCTGATGAATTCGGATGATCGAGTAAACAAATTTTCCTAATCTTTCTGTTCAAGCGCCATCTAC	0.833 RPM ratio (pull-down/input)
GATGATTGTTCTCCCAGCTGATGAATTGCATCGCTCGAGTAAACAAATTTTCCTAATCTTTCTGTTCAAGCGCCATCTAC	1.13 RPM ratio (pull-down/input)
GATGATTGTTCTCCCAGCTGATGAATTCGACTTATCGAGTAAACAAATTTTCCTAATCTTTCTGTTCAAGCGCCATCTAC	0.872 RPM ratio (pull-down/input)
GATGATTGTTCTCCCAGCTGATGAATTCGCAAGTTCGAGTAAACAAATTTTCCTAATCTTTCTGTTCAAGCGCCATCTAC	0.848 RPM ratio (pull-down/input)
GATGATTGTTCTCCCAGCTGATGAATTAGTGATTTCGAGTAAACAAATTTTCCTAATCTTTCTGTTCAAGCGCCATCTAC	1.19 RPM ratio (pull-down/input)
GATGATTGTTCTCCCAGCTGATGAATTAACCCAGTCGAGTAAACAAATTTTCCTAATCTTTCTGTTCAAGCGCCATCTAC	0.834 RPM ratio (pull-down/input)

Sequence	binding signal
GATGATTGTTCTCCCAGCTGATGAATTTAGAATGTCGAGTAAACAAATTTTCCTAATCTTTCTGTTCAAGCGCCATCTAC	1.05 RPM ratio (pull-down/input)
GATGATTGTTCTCCCAGCTGATGAATTAGATTAGTCGAGTAAACAAATTTTCCTAATCTTTCTGTTCAAGCGCCATCTAC	0.868 RPM ratio (pull-down/input)
GATGATTGTTCTCCCAGCTGATGAATTTACTCCTTCGAGTAAACAAATTTTCCTAATCTTTCTGTTCAAGCGCCATCTAC	1.29 RPM ratio (pull-down/input)
GATGATTGTTCTCCCAGCTGATGAATTACTATTGTCGAGTAAACAAATTTTCCTAATCTTTCTGTTCAAGCGCCATCTAC	2.38 RPM ratio (pull-down/input)
GATGATTGTTCTCCCAGCTGATGAATTTCGGGCATCGAGTAAACAAATTTTCCTAATCTTTCTGTTCAAGCGCCATCTAC	0.959 RPM ratio (pull-down/input)
GATGATTGTTCTCCCAGCTGATGAATTGAAAAAATCGAGTAAACAAATTTTCCTAATCTTTCTGTTCAAGCGCCATCTAC	1.03 RPM ratio (pull-down/input)
GATGATTGTTCTCCCAGCTGATGAATTTGGGTCCTCGAGTAAACAAATTTTCCTAATCTTTCTGTTCAAGCGCCATCTAC	0.846 RPM ratio (pull-down/input)
GATGATTGTTCTCCCAGCTGATGAATTTCCATCCTCGAGTAAACAAATTTTCCTAATCTTTCTGTTCAAGCGCCATCTAC	0.827 RPM ratio (pull-down/input)
GATGATTGTTCTCCCAGCTGATGAATTCTCTTTGTCGAGTAAACAAATTTTCCTAATCTTTCTGTTCAAGCGCCATCTAC	0.834 RPM ratio (pull-down/input)
GATGATTGTTCTCCCAGCTGATGAATTTGTCAGCTCGAGTAAACAAATTTTCCTAATCTTTCTGTTCAAGCGCCATCTAC	0.895 RPM ratio (pull-down/input)
GATGATTGTTCTCCCAGCTGATGAATTCTTCAGGTCGAGTAAACAAATTTTCCTAATCTTTCTGTTCAAGCGCCATCTAC	0.789 RPM ratio (pull-down/input)
GATGATTGTTCTCCCAGCTGATGAATTTCATGGGTCGAGTAAACAAATTTTCCTAATCTTTCTGTTCAAGCGCCATCTAC	0.803 RPM ratio (pull-down/input)
GATGATTGTTCTCCCAGCTGATGAATTGTCCTTGTCGAGTAAACAAATTTTCCTAATCTTTCTGTTCAAGCGCCATCTAC	1.07 RPM ratio (pull-down/input)
GATGATTGTTCTCCCAGCTGATGAATTATACCCATCGAGTAAACAAATTTTCCTAATCTTTCTGTTCAAGCGCCATCTAC	0.975 RPM ratio (pull-down/input)
GATGATTGTTCTCCCAGCTGATGAATTAGCTGGCTCGAGTAAACAAATTTTCCTAATCTTTCTGTTCAAGCGCCATCTAC	0.774 RPM ratio (pull-down/input)
GATGATTGTTCTCCCAGCTGATGAATTAGGCCAATCGAGTAAACAAATTTTCCTAATCTTTCTGTTCAAGCGCCATCTAC	0.998 RPM ratio (pull-down/input)
GATGATTGTTCTCCCAGCTGATGAATTAGTTTTGTCGAGTAAACAAATTTTCCTAATCTTTCTGTTCAAGCGCCATCTAC	1.06 RPM ratio (pull-down/input)
GATGATTGTTCTCCCAGCTGATGAATTAATTGTGTCGAGTAAACAAATTTTCCTAATCTTTCTGTTCAAGCGCCATCTAC	1.22 RPM ratio (pull-down/input)
GATGATTGTTCTCCCAGCTGATGAATTCACCGGCTCGAGTAAACAAATTTTCCTAATCTTTCTGTTCAAGCGCCATCTAC	0.823 RPM ratio (pull-down/input)
GATGATTGTTCTCCCAGCTGATGAATTACCGTAGTCGAGTAAACAAATTTTCCTAATCTTTCTGTTCAAGCGCCATCTAC	0.941 RPM ratio (pull-down/input)
GATGATTGTTCTCCCAGCTGATGAATTTATTTAGTCGAGTAAACAAATTTTCCTAATCTTTCTGTTCAAGCGCCATCTAC	1.76 RPM ratio (pull-down/input)

Sequence	binding signal
GATGATTGTTCTCCCAGCTGATGAATTAAATTACTCGAGTAAACAAATTTTCCTAATCTTTCTGTTCAAGCGCCATCTAC	0.997 RPM ratio (pull-down/input)
GATGATTGTTCTCCCAGCTGATGAATTCCAGCGCTCGAGTAAACAAATTTTCCTAATCTTTCTGTTCAAGCGCCATCTAC	0.779 RPM ratio (pull-down/input)
GATGATTGTTCTCCCAGCTGATGAATTTCGCATCTCGAGTAAACAAATTTTCCTAATCTTTCTGTTCAAGCGCCATCTAC	1.21 RPM ratio (pull-down/input)
GATGATTGTTCTCCCAGCTGATGAATTGTGCCCATCGAGTAAACAAATTTTCCTAATCTTTCTGTTCAAGCGCCATCTAC	1.06 RPM ratio (pull-down/input)
GATGATTGTTCTCCCAGCTGATGAATTTTAATGCTCGAGTAAACAAATTTTCCTAATCTTTCTGTTCAAGCGCCATCTAC	1.05 RPM ratio (pull-down/input)
GATGATTGTTCTCCCAGCTGATGAATTATTGGTCTCGAGTAAACAAATTTTCCTAATCTTTCTGTTCAAGCGCCATCTAC	1.2 RPM ratio (pull-down/input)
GATGATTGTTCTCCCAGCTGATGAATTTAGTTGCTCGAGTAAACAAATTTTCCTAATCTTTCTGTTCAAGCGCCATCTAC	1.17 RPM ratio (pull-down/input)
GATGATTGTTCTCCCAGCTGATGAATTACAAGGTTCGAGTAAACAAATTTTCCTAATCTTTCTGTTCAAGCGCCATCTAC	1.09 RPM ratio (pull-down/input)
GATGATTGTTCTCCCAGCTGATGAATTTTCGCTTTCGAGTAAACAAATTTTCCTAATCTTTCTGTTCAAGCGCCATCTAC	1.08 RPM ratio (pull-down/input)
GATGATTGTTCTCCCAGCTGATGAATTGGGAATCTCGAGTAAACAAATTTTCCTAATCTTTCTGTTCAAGCGCCATCTAC	0.85 RPM ratio (pull-down/input)
GATGATTGTTCTCCCAGCTGATGAATTTTGCCTGTCGAGTAAACAAATTTTCCTAATCTTTCTGTTCAAGCGCCATCTAC	0.891 RPM ratio (pull-down/input)
GATGATTGTTCTCCCAGCTGATGAATTCCGAAGTTCGAGTAAACAAATTTTCCTAATCTTTCTGTTCAAGCGCCATCTAC	0.765 RPM ratio (pull-down/input)
GATGATTGTTCTCCCAGCTGATGAATTTTTCGGGTCGAGTAAACAAATTTTCCTAATCTTTCTGTTCAAGCGCCATCTAC	0.808 RPM ratio (pull-down/input)
GATGATTGTTCTCCCAGCTGATGAATTTATCTACTCGAGTAAACAAATTTTCCTAATCTTTCTGTTCAAGCGCCATCTAC	1.07 RPM ratio (pull-down/input)
GATGATTGTTCTCCCAGCTGATGAATTATTGTAATCGAGTAAACAAATTTTCCTAATCTTTCTGTTCAAGCGCCATCTAC	1.91 RPM ratio (pull-down/input)
GATGATTGTTCTCCCAGCTGATGAATTTCATGGATCGAGTAAACAAATTTTCCTAATCTTTCTGTTCAAGCGCCATCTAC	0.799 RPM ratio (pull-down/input)
GATGATTGTTCTCCCAGCTGATGAATTAGGTCATTCGAGTAAACAAATTTTCCTAATCTTTCTGTTCAAGCGCCATCTAC	0.856 RPM ratio (pull-down/input)
GATGATTGTTCTCCCAGCTGATGAATTCCTGTTCTCGAGTAAACAAATTTTCCTAATCTTTCTGTTCAAGCGCCATCTAC	0.819 RPM ratio (pull-down/input)
GATGATTGTTCTCCCAGCTGATGAATTCGCGATCTCGAGTAAACAAATTTTCCTAATCTTTCTGTTCAAGCGCCATCTAC	0.825 RPM ratio (pull-down/input)
GATGATTGTTCTCCCAGCTGATGAATTTGCTGCGTCGAGTAAACAAATTTTCCTAATCTTTCTGTTCAAGCGCCATCTAC	1 RPM ratio (pull-down/input)
GATGATTGTTCTCCCAGCTGATGAATTTCATGTGTCGAGTAAACAAATTTTCCTAATCTTTCTGTTCAAGCGCCATCTAC	0.922 RPM ratio (pull-down/input)
